Laboratory results as given in publication PMC4336329 (PLoS ONE, 2015).
In all, about 310,000 compounds went through this assay and about 14,000 (4.5%) showed an effect of 50% or more. Effects have a minus sign here. This is one part of the list.

What follows are compounds tested against human ether-à-go-go-related gene (hERG) potassium channel (human, UniProt Q12809) (assay: primary screen, population patch clamp on CHO cells stably expressing hERG).
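Also: peak tail current of the secondary pulse compared with the same well before compound.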

Chain of human ether-à-go-go-related gene (hERG) potassium channel (Q12809 whole entry, looked up): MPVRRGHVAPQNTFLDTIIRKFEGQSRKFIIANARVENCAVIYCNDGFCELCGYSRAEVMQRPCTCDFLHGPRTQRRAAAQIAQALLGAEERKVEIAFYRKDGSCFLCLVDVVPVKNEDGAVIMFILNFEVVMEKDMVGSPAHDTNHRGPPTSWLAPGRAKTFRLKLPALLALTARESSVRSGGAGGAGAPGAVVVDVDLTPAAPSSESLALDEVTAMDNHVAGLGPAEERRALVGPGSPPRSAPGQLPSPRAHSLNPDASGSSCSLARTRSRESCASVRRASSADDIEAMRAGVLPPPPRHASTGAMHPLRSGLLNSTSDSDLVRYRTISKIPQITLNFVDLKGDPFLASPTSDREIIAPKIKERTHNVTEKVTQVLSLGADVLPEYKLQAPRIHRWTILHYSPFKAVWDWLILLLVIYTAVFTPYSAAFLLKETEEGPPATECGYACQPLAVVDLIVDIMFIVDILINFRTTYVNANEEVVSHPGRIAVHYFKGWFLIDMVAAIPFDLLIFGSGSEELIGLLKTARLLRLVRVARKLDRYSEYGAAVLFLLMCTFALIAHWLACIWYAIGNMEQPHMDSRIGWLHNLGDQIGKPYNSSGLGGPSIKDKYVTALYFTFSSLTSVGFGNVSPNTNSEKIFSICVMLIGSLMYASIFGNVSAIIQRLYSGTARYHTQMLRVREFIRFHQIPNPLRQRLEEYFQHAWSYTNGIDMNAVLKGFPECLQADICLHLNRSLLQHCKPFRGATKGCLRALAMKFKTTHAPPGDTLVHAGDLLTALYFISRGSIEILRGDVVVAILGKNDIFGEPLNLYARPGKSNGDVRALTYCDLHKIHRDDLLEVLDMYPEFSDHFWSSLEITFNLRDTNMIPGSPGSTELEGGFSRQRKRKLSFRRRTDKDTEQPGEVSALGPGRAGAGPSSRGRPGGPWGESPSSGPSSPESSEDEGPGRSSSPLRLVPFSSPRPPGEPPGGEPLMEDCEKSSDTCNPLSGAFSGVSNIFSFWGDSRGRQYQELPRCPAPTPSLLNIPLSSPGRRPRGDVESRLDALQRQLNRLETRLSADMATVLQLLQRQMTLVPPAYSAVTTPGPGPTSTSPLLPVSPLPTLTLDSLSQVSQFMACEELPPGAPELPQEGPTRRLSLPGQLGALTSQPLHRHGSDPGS

| Structure (SMILES) | hERG current change (%, negative = inhibition) at 10uM [%] |
| --- | --- |
| Cc1cc(C)nc(/N=C(\N)Nc2cc([N+](=O)[O-])ccc2C)n1 | -49 |
| O=C(Nc1nncs1)Oc1ccccc1 | 8.98 |
| NC(N)=NCC(O)CN(c1ccccc1)c1ccccc1.O=S(=O)(O)O (stereo not shown) | -1.09 |
| CC1CCCN(C(=O)CCS(=O)(=O)c2ccc3c(c2)n(C)c(=O)c(=O)n3C)C1 (stereo not shown) | 1.25 |
| CCSc1nnc(NC(=O)C(C)Sc2nc3ccccc3[nH]2)s1 (stereo not shown) | -3.15 |
| CN1C2CCC1CC(NC(=O)c1cc(Cl)cc3[nH]cnc13)C2 (stereo not shown) | 4.12 |
| O=C(NC1CCCC1)c1cc(-c2ccccc2Cl)on1 | 10.5 |
| CCOc1ccccc1C(=O)Nc1ccc(S(=O)(=O)Nc2cc(OC)nc(OC)n2)cc1 | -3.54 |
| O=C1c2ccccc2C(=O)C12OC(c1ccccc1)C1(C(=O)c3ccccc3C1=O)C2c1ccc([N+](=O)[O-])cc1 (stereo not shown) | 20.5 |
| CN(C)S(=O)(=O)c1cccc(NC(=O)c2ccc(-n3cncn3)c([N+](=O)[O-])c2)c1 | -18 |
| Cc1c(C(=O)OCC(=O)N2CC(C)OC(C)C2)oc2ccc(Br)cc12 (stereo not shown) | -19.6 |
| CCOC(=O)CSc1nc2ccccc2c(=O)n1CCN1CCOCC1 | -50.3 |
| COC(=O)CNC(=O)CSc1nc2c(sc(=S)n2-c2ccccc2)c(=O)[nH]1 | 19 |
| COC(=O)c1ccccc1NC(=O)COc1ccc(S(=O)(=O)N2CCCC2)cc1C | 8.37 |
| CCn1c(CSCc2ccc(C)cc2)nnc1SCC(=O)N1CCN(c2ccccc2)CC1 | -45.4 |
| CCOc1ccc(NC(=O)CC(C)S(=O)(=O)c2ccc3c(c2)NC(=O)CO3)cc1 (stereo not shown) | 5.66 |
| O=C(Cc1ccccc1C(=O)O)Nc1cccc2ccccc12 | 16.5 |
| CCCCN(CC)CCNC(=O)c1cc2c(=O)n(CC)c3ccccc3c2s1 | -35.5 |
| Cc1nc(Cl)sc1C(=O)Nc1cccc2ccccc12 | -11.3 |
| CC(=O)Nc1ccc(Cc2nc3c([nH]2)c(=O)n(C)c(=O)n3C)cc1 | 21 |
| COc1ccccc1C(=O)N/C(=C\c1cn(C)c2ccccc12)C(=O)NCCCN1CCOCC1 | -8.52 |
| Nc1nc(-c2ccc(Cl)cc2)nn1C(=O)c1cccs1 | 14.1 |
| CCOC(=O)c1[nH]c2ccc(OCC)cc2c1NC(=O)CN1CCC2(CC1)OCCO2 | -25.7 |
| O=C(O)CNS(=O)(=O)Cc1ccccc1 | 26.9 |
| O=C(NCc1c(O)ccc2ccccc12)c1ccccc1 | 12 |
| NC(N)=NS(=O)(=O)c1ccc(NC(=S)Nc2ccc(F)cc2)cc1 | 16.7 |
| Cc1cc(Cl)c(S(=O)(=O)Nc2ccon2)cc1OCC(=O)NC1CCCCC1 | 12.4 |
| Cc1ccc(OCc2nnc(SCC(=O)Nc3ccc4c(c3)OCO4)n2C)cc1 | -15.7 |

| Structure (SMILES) | hERG current change (%, negative = inhibition) at 10uM [%] |
| --- | --- |
| O=C(Cc1ccccc1)N1CCC(C(=O)N2CCN(c3ccc(F)cc3)CC2)CC1 | -56.6 |
| CCOc1ccc(NC2=CC(=O)CC(c3ccco3)C2)cc1 (stereo not shown) | -12.5 |
| Cn1c(=O)c2[nH]c(CN(Cc3ccccc3)Cc3ccccc3)nc2n(C)c1=O | -1.87 |
| O=C(Cc1ccccc1)N1CCN(Cc2ccc(F)cc2)CC1.O=C(O)C(=O)O | 2.38 |
| CCN1CCN(c2nc3c(c(=O)n(C)c(=O)n3C)n2Cc2cccc3ccccc23)CC1 | -24.1 |
| O=C(COCc1ccccc1)N[C@@H](Cc1ccc(O)cc1)C(=O)O | 9.11 |
| COC(=O)[C@H]1C[C@H]1[C@@H](NC(=O)c1ccc[nH]1)c1ccccc1 | -12.4 |
| CCOC(=O)Nc1ccc2c(c1)N(C(=O)CN1CCN(C)CC1)c1ccccc1CC2.Cl | -1.95 |
| Cc1ccc(S(=O)(=O)NNC(=O)c2ccccc2O)cc1 | 4.23 |
| O=C(CCC(=O)Nc1ccc(F)cc1)N/N=C/c1cccnc1 | 17.8 |
| COc1ccc(CNC(=O)c2cc(C3CC3)on2)cc1 | 1.82 |
| CCOC(=O)c1cc2c(=O)n3cccc(C)c3nc2n(CCCOC)c1=NC(=O)c1cccnc1 | -78.6 |
| Cc1cc(=O)n2c3ccccc3n(C)c2n1 | 9.7 |
| CCOC(=O)c1ccccc1NC(=O)COC(=O)CN1C(=O)C2CC=CCC2C1=O (stereo not shown) | -2.8 |
| CCC(C)NS(=O)(=O)c1ccc(NC(=O)C(Sc2ccccc2)c2ccccc2)cc1 (stereo not shown) | 2.72 |
| O=C(CSc1nnc(COc2cccc3cccnc23)o1)N1CCc2ccccc21 | 17.1 |
| CCOC(=O)Cc1csc(NC(=O)CSc2nnc(C3CC3)n2C)n1 | 1.31 |
| COc1cccc(C=O)c1OCCN1C(=O)c2ccccc2C1=O | 4 |
| O=C(NCc1cccnc1)c1cccc(NC(=O)c2ccco2)c1 | -1.86 |
| COc1ccc(C(=O)OCC(=O)NC(=O)NC(C)C)cc1OC | 10.9 |
| O=C(NC1CCCc2c1cnn2-c1ccccc1F)c1ccccc1N1CCOCC1 (stereo not shown) | -36.3 |
| CCC(c1ccc(O)cc1)C(CC)c1ccc(O)cc1 (stereo not shown) | 6.02 |
| O=C(c1ccc(COc2ccc(F)cc2)o1)n1cccn1 | 4.97 |
| O=C(CSc1nc(-c2ccccc2)c(-c2ccccc2)[nH]1)N1CCN(S(=O)(=O)c2ccccc2)CC1 | 1.73 |
| O=C(CCn1c(=O)oc2ccccc21)NCCCN1CCN(c2ccc(F)cc2)CC1 | -66.2 |
| CN(CC(=O)Nc1ccccc1Cl)CC(=O)Nc1c(F)cccc1F | 14.4 |
| O=C(CCCN1C(=O)/C(=C/c2ccccc2)SC1=S)N1CCOCC1 | -30.1 |
